The text below walks through data of PubChem BioAssay AID463173 (ICCB-Longwood Screening Facility, Harvard Medical School, 2010).

Structures are written as SMILES. In all, about 52,000 compounds went through this assay and about 1,700 (3.3%) were called active. No stated cut-off is given here; in the data, active means survival mostly below about 52% (no sharp cut-off); inactive means mostly above about 56%. The list shows a part of the results.

In this assay the test system is Wild type. Description: growth inhibition of S. aureus wild type versus tarO mutant, primary screen, teichoic acid synthesis inhibitors, RN4220, OD600 (AID 463173). The settings on record: S. aureus RN4220 wild type/DeltatarO growth, OD600, 18 h, active compounds read low, screened at 18.75 µg/mL (by protocol).
With `Cn1c(=O)c2[nH]c(=S)[nH]c2n(C)c1=O`, the survival was inactive: 109%.
With `CC(=O)N1CCCc2cc(S(=O)(=O)N3CCC(C(=O)Nc4c(C)cccc4C)CC3)ccc21` the figure was inactive: 78%; with `Cc1cc(C)c(NC(=O)CSc2nc3nccnc3c(=O)n2CCc2c[nH]c3ccccc23)c(C)c1`, inactive: 85%; with `CCOc1cccc(C(=O)Nc2ccc3oc(-c4ccncc4)nc3c2)c1`, inactive: 73%.
With `COc1ccc(-c2cc(OC(=O)c3ccccc3Cl)c3c(C)oc(C)c3c(=O)c2)cc1OC` the figure was inactive: 77%; with `COc1cc(OC)c(NS(=O)(=O)c2c(C)nc3sc(C)cn3c2=O)cc1Cl`, inactive: 88%.
With `CCc1nnc(SCc2cccc(Cl)c2)c2cc3sccc3n12` the figure was active: 2%.
Regarding `COc1ccc2c(CNC3CCCCCC3)c(C(=O)O)n(Cc3ccc(C)cc3)c2c1`, the survival is inactive: 79%.
With `Cc1ccc(-c2noc(-c3cccnc3NCc3ccco3)n2)cc1` the figure was inactive: 88%.
Next, `COc1ccc(CNC(=O)CN2C(=O)COc3ccc(S(=O)(=O)N4CCCCC4)cc32)cc1`: inactive: 96%; `Cc1cc(F)ccc1NC(=O)Cn1nc(N2CCN(c3ccccc3)CC2)ccc1=O`: inactive: 87%; `Cc1nc2ccccc2n1C(=O)N(C)C`: inactive: 116%.
Next, `CC1CCN(C(=O)COc2ccccc2Cl)CC1`: inactive: 94%.
Take `O=C(Cn1cc(SCc2ccc(F)cc2)c2ccccc21)N1CCCCC1`: the survival was inactive: 87%.
With `Cc1ccc(Cn2c(C)c3cnn(CC(=O)O)c(=O)c3c2C)cc1` the figure was inactive: 77%; with `CCCSc1oc(-c2cccs2)nc1S(=O)(=O)c1ccc(C)cc1`, inactive: 39%.
Consider `O=C(Nc1cccc(C(=O)OCc2cc(=O)n3c4c(sc3n2)CCCC4)c1)c1ccc(Cl)cc1`, for which the survival is inactive: 74%.
Consider `COc1ccc(NC(=O)Cn2c(=O)n(CCCCCC(=O)NCc3ccc4c(c3)OCO4)c(=O)c3sccc32)cc1Cl`, for which the survival was inactive: 89%.
Next, `COc1ccc2c(c1)c(CC(=O)Nc1cc(C)cc(C)c1)c(C)n2C(=O)c1ccc(Cl)cc1`: inactive: 78%.
As to `CCN1C(=O)C2C(c3ccc(OC)cc3)NC(CC)(C(=O)OC)C2C1=O` (stereo not drawn), the survival is inactive: 96%.
Next, `O=C(NCc1ccccc1)c1cnc2sc(N3CCCC3)nn2c1=O`: inactive: 73%.
With `COc1ccc(C)cc1NC(=O)c1sc2nc(-c3ccc(F)cc3)cn2c1C` the figure was inactive: 80%; with `CCN(CC)C(=O)c1sc2c(c1C)c(=O)n(Cc1ccccc1)c(=O)n2Cc1cc(C)ccc1C`, inactive: 45%.
On to `CC(c1nnnn1CCc1ccccc1)N1CCN(c2cccc(C(F)(F)F)c2)CC1` (stereo not drawn), for which the survival is inactive: 135%.
Consider `CCS(=O)(=O)N1CCN(CC2CC3C=CC2C3)CC1` (stereo not drawn), for which the survival is inactive: 109%.
Next, `Cc1cc2c(cc1S(=O)(=O)C(C)CC(=O)NC1CCC(C)CC1)OCC(=O)N2` (stereo not drawn): inactive: 69%; `CCC(CC)NCc1ccc(OC)c(C)c1OC`: inactive: 107%; `Cc1cc(C)c2oc(C(=O)Nc3ccc(S(=O)(=O)Nc4ncccn4)cc3)cc(=O)c2c1`: inactive: 87%.
With `O=C(CCCn1ncn2c(cc3occc32)c1=O)NCc1ccccc1F` the figure was inactive: 88%; with `COc1ccccc1NC(=O)c1sc(-c2ccc(Cl)cc2)cc1N`, inactive: 129%; with `CCc1ccc2c(c1)NC(c1ccc(F)cc1)=NC(c1ccncc1)=N2`, inactive: 104%.
Regarding `O=C(Nc1ccccc1C(F)(F)F)c1cc2nc(-c3ccccc3)cc(-c3ccccc3)n2n1`, the survival is inactive: 67%.
With `CCc1ccc(OC(=O)CSc2nnc(-c3ccc(OC)c(OC)c3)o2)cc1` the figure was inactive: 89%; with `O=C(NCCc1ccccc1)c1ccc2c(c1)N(Cc1ccc(F)cc1Cl)C(=O)CS2`, inactive: 67%.
With `CCCc1nnc(SCC(=O)N2CCCc3ccccc32)n1CC` the figure was inactive: 108%; with `Cc1ccc(NC(=O)N2CCC3(CC2)Oc2ccccc2C(=O)N3Cc2ccc(F)cc2)cc1`, inactive: 78%; with `CCNC(=O)c1ccc2c(c1)sc1nc(-c3cccc(OC)c3)cn12`, inactive: 92%.
Next, `CN(C)c1ccc(-c2nnc(-c3ccc(Cl)cc3)o2)cc1`: inactive: 106%.
As for `CC(Oc1ccccc1)C(=O)Nc1cccc(-c2cn3cccnc3n2)c1` (stereo not drawn), the survival was inactive: 84%.
Next, `Cc1c2cnn(CC(=O)NC(C)C)c(=O)c2c(C)n1Cc1cccc(Cl)c1`: inactive: 81%; `O=C(CN1CCC(n2cnc3cc(F)ccc32)CC1)Nc1ccccc1Br`: inactive: 108%.
With `COc1ccc(/C=C/c2nc(C#N)c(NCc3ccc(C)cc3)o2)cc1OC` the figure was inactive: 100%.
With `COc1ccc(Cn2c(SC)nc3ccccc32)cc1` the figure was inactive: 108%; with `CCOc1nc(-c2ccccc2)ccc1-c1noc(-c2ccc(C)cc2)n1`, inactive: 109%.
For the molecule `c1cncc(-c2nnc(SCC3CCCCC3)o2)c1`, the survival is inactive: 103%.
Regarding `CCOc1ccc(NC(=O)CC2C(=O)N(c3ccccc3)C(=O)N2CCc2sccc2C)cc1` (stereo not drawn), the survival is inactive: 80%.
With `O=C(Cn1cc(SCc2cccc(Cl)c2)c2ccccc21)N1CCCCC1` the figure was inactive: 81%; with `Cc1c(C(=O)OC2CCC(C)CC2)[nH]c2c1C(=O)CC(c1ccc(N(C)C)cc1)C2` (stereo not drawn), inactive: 80%; with `COc1ccc(S(=O)(=O)c2c(C(=O)c3ccc(C)c(C)c3)cnc3ccc(C)cc23)cc1`, inactive: 84%.
For the molecule `Fc1ccc(-c2cc(-c3nc(-c4ccc(Cl)cc4)no3)[nH]n2)cc1`, the survival is inactive: 72%.
For `O=C1C2C3c4ccccc4C(c4ccccc43)C2C(=O)N1Cc1ccco1` (stereo not drawn), the survival is inactive: 124%.
In the case of `NC(=O)C1CCN(C(=O)c2cc(-c3ccccc3)on2)CC1`, the survival was inactive: 121%.
Next, `CC(=O)c1ccc(NC(=O)c2nc(-c3ccc(Cl)cc3)n3c2CCCCC3)cc1`: inactive: 70%; `CC(C)(C)OC(=O)N1CCC(c2c(C(=O)N3CCN(C(=O)c4ccco4)CC3)cnn2-c2cccc(Cl)c2)CC1`: inactive: 95%; `COC(=O)c1cc(NC(=O)CC2C(=O)OCCN2Cc2ccccc2)cc(C(=O)OC)c1` (stereo not drawn): inactive: 147%.
Next, `COc1cccc(OCC(=O)NC2CC(=O)N(c3cccc(OC)c3)C2)c1` (stereo not drawn): inactive: 124%; `Cc1ccccc1CSc1nc2c(sc3ccccc32)c(=O)n1CCCC(=O)NCCCOC(C)C`: inactive: 87%; `COc1ccc(NC(=O)Cn2c(=O)c3ccccc3n3nncc23)cc1Cl`: inactive: 87%.
